Reference: the supplement of paper PMC11417369
± gives the standard deviation of the averaged measurements. The list shows a part of the results.

System: PfAP2-LT AP2 domain (GST-tagged)
Assay: gcPBM binding intensity (ln(normalized median fluorescence intensity)); higher = stronger DNA binding
Method in brief: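 GST-tagged P. falciparum DNA-binding domains produced in E. coli were incubated for 1 h on an Agilent 4 × 180k array of primer-extended double-stranded 36-bp intergenic genomic probes with negative controls. Binding intensity is the highest Masliner-normalised natural-log median intensity across replicate spots of either probe orientation, with bound protein detected by Alexa488 anti-GST antibody at 488 nm.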

**Q.** With “GAAAATATAAAAAAAAGTACATTTTCTCTAAATATA [XGTACX_site2441]” as the sequence, how does the “gcPBM binding intensity (ln)” value read?
**A.** 8.53 ± 0.57

**Q.** With “AAAAAGGGTATTATTACACACACGTAAATATTAAGA [CACACA_site4233]” as the sequence, how does the “gcPBM binding intensity (ln)” value read?
**A.** 9.26 ± 0.47

**Q.** Which “gcPBM binding intensity (ln)” value does the source give for “AAAAAAAAATTATATACACACATATAAATATATATA [CACACA_site1197]” here?
**A.** 8.79 ± 0.42

**Q.** Which “gcPBM binding intensity (ln)” value does the source give for “CTATATAATATGAGCACACATAAGATTTGGTGTTAT [CACACA_site744]” here?
**A.** 8.93 ± 0.34

**Q.** With “AAAATCTAGGTATTTATACACACTAAAATAATATAC [CACACA_site623]” as the sequence, how does the “gcPBM binding intensity (ln)” value read?
**A.** 8.92 ± 0.4

**Q.** Which “gcPBM binding intensity (ln)” value does the source give for “CAAATACAGAAACACACACACATATACATATATATA [CACACA_site3498]” here?
**A.** 9.77 ± 0.19

**Q.** For “TATATATATATATGGGGTACAAATGGTCAGTATTAT [XGTACX_site1223]”, which “gcPBM binding intensity (ln)” value is on record?
**A.** 9.66 ± 0.21

**Q.** For “AATATGTAATAGTGTACACATATATCTGTATTTATG [CACACA_site4252]”, which “gcPBM binding intensity (ln)” value is on record?
**A.** 9.02 ± 0.4

**Q.** “TTTAAATATAATTGGAGTACTTATAATATATATATA [XGTACX_site7247]” was tested. Which “gcPBM binding intensity (ln)” value did it give?
**A.** 8.39 ± 0.42

**Q.** How did the “gcPBM binding intensity (ln)” value turn out when ATTACACATATAGTAGTGCAATAACTCCAAAAAAAA was run?
**A.** 8.78 ± 0.42

**Q.** “ATGTTATTAAAAAAGGGTACACATCTTTTATGTTAA [XGTACX_site812]” was tested. Which “gcPBM binding intensity (ln)” value did it give?
**A.** 8.57 ± 0.31

**Q.** “TTTTAAAAAAAAAAAAAAAAAAAAAAAAAAAAAAAA [CACACA_negctrl_site1343]” was tested. Which “gcPBM binding intensity (ln)” value did it give?
**A.** 7.9 ± 0.23

**Q.** Which “gcPBM binding intensity (ln)” value does the source give for TTTTAAAATTATTAGGTGCATATTTATTCTATATTT here?
**A.** 8.62 ± 0.47

**Q.** How did the “gcPBM binding intensity (ln)” value turn out when “TGTTTTTTTATTTTCACACATAATCCAATTATACAT [CACACA_site6070]” was run?
**A.** 8.95 ± 0.47

**Q.** “TGCAATGGAGCATAAAGTACATATAATTGTATTTTT [XGTACX_site7349]” was tested. Which “gcPBM binding intensity (ln)” value did it give?
**A.** 8.74 ± 0.47

**Q.** How did the “gcPBM binding intensity (ln)” value turn out when “AATACAGAGGAAAATACACACGTATATATATAAATA [CACACA_site9125]” was run?
**A.** 9.18 ± 0.46

**Q.** Which “gcPBM binding intensity (ln)” value does the source give for “TAGAATAATCCTTACACACACACACCCACGAATAAA [CACACA_site483]” here?
**A.** 10.1 ± 0.2

**Q.** With “ATCAACAAAACATACACACACATATATATATATATA [CACACA_site2989]” as the sequence, how does the “gcPBM binding intensity (ln)” value read?
**A.** 10.32 ± 0.057

**Q.** For “GCATCTCATTTGTGATGTACTATATTATCCGTTTTT [XGTACX_site7576]”, which “gcPBM binding intensity (ln)” value is on record?
**A.** 8.87 ± 0.43

**Q.** “TTTCTATATCTATTTAATTAACTTTTTATACTGATT [GTGCAC_negctrl_site415]” was tested. Which “gcPBM binding intensity (ln)” value did it give?
**A.** 8.65 ± 0.42

**Q.** With “CACATAAAAAAATAAACACACATATGTATTTATATA [CACACA_site5718]” as the sequence, how does the “gcPBM binding intensity (ln)” value read?
**A.** 8.91 ± 0.44

**Q.** Which “gcPBM binding intensity (ln)” value does the source give for “CATATCATTGATTATAGTACACATACCATTTTTTAT [XGTACX_site6572]” here?
**A.** 8.91 ± 0.47

**Q.** How did the “gcPBM binding intensity (ln)” value turn out when “TTAAAAAAATATAGAGCATGCTAAAAATAAAAAAAT [TGCATGCA_site794]” was run?
**A.** 9.1 ± 0.62

**Q.** How did the “gcPBM binding intensity (ln)” value turn out when AATAAAAATAATATAGTGCATAATATAAGGAAAAAA was run?
**A.** 8.93 ± 0.45

**Q.** With “CAACACTTAGATTTTAAGTTCACTGGTTAATATATA [CACACA_negctrl_site707]” as the sequence, how does the “gcPBM binding intensity (ln)” value read?
**A.** 8.55 ± 0.38

**Q.** “AGGTCTATATAATAAGTGCATTTTTTTTTTTTTTTT [GTGCAC_site9664]” was tested. Which “gcPBM binding intensity (ln)” value did it give?
**A.** 8.6 ± 0.34

**Q.** “GTTATACTCATCAACACACACATACAACGTGGTGTA [CACACA_site4789]” was tested. Which “gcPBM binding intensity (ln)” value did it give?
**A.** 9.29 ± 0.33

**Q.** For “AAAAAAAAAAAAAAATACAAGCACATTTATATAAGC [GTGCAC_negctrl_site695]”, which “gcPBM binding intensity (ln)” value is on record?
**A.** 8.67 ± 0.47

**Q.** Which “gcPBM binding intensity (ln)” value does the source give for “AGTAATATAATATAAGCACACGTGTATTTATTTAGG [CACACA_site7921]” here?
**A.** 9.08 ± 0.44

**Q.** Which “gcPBM binding intensity (ln)” value does the source give for “TATATATCAATATTTACACACATGCGCCCACATAAA [CACACA_site7185]” here?
**A.** 9.33 ± 0.42

**Q.** “AAATACATTAAAATGACATGCAGATATATATCAAAA [TGCATGCA_site477]” was tested. Which “gcPBM binding intensity (ln)” value did it give?
**A.** 9.01 ± 0.41

**Q.** For “TATATGTTTGAATATACACACAACATATTTATATAT [CACACA_site7832]”, which “gcPBM binding intensity (ln)” value is on record?
**A.** 8.9 ± 0.41

**Q.** Which “gcPBM binding intensity (ln)” value does the source give for “AAAAAAAAAAAATATGTACACACATATATAATACAT [CACACA_site8473]” here?
**A.** 9.09 ± 0.35

**Q.** How did the “gcPBM binding intensity (ln)” value turn out when “TTTTTTGTTAAAAGAGTGCAAATTTTTAAAGATTTG [GTGCAC_site9502]” was run?
**A.** 8.1 ± 0.46

**Q.** How did the “gcPBM binding intensity (ln)” value turn out when “CTATGCCCCATATAAACACACAAATAAAAAGAATAT [CACACA_site2681]” was run?
**A.** 9.09 ± 0.39

**Q.** “TTTTTTTCTTTTGGGAGTACCAACATTTTCACATAT [XGTACX_site1371]” was tested. Which “gcPBM binding intensity (ln)” value did it give?
**A.** 9.09 ± 0.56

**Q.** How did the “gcPBM binding intensity (ln)” value turn out when “TGAATAAAGATATATACACACATATAGGTATATATC [CACACA_site6870]” was run?
**A.** 9.01 ± 0.41

**Q.** Which “gcPBM binding intensity (ln)” value does the source give for “AAAAAAAAAAGACACACACACACAAATACATACACA [CACACA_site6472]” here?
**A.** 10.2 ± 0.042

**Q.** With “ATCTAAATAAAGTTAACACACACATAATATATATAT [CACACA_site8055]” as the sequence, how does the “gcPBM binding intensity (ln)” value read?
**A.** 9.19 ± 0.4

**Q.** Which “gcPBM binding intensity (ln)” value does the source give for “TGCTTATATTTTTATACACACAAGATACTTTTTGTT [CACACA_site1535]” here?
**A.** 9.04 ± 0.52

**Q.** Which “gcPBM binding intensity (ln)” value does the source give for “AATAAAAAGGAACACACACACACACGGATATAAATA [CACACA_site7658]” here?
**A.** 10.3 ± 0.37

**Q.** For “TCTTTGTAAATTTCTTGTACGTAAATTTTTTTTAGG [XGTACX_site7062]”, which “gcPBM binding intensity (ln)” value is on record?
**A.** 8.55 ± 0.35

**Q.** With “TCATAGTATAGACACACACACACACGCATATAAATA [CACACA_site6915]” as the sequence, how does the “gcPBM binding intensity (ln)” value read?
**A.** 9.92 ± 0.13

**Q.** With “TATTTTACATCTTCTCACATTTTATCACTTTTTAAA [CACACA_negctrl_site330]” as the sequence, how does the “gcPBM binding intensity (ln)” value read?
**A.** 8.71 ± 0.52

**Q.** With “TGTATATATAAACATGCACACGTGGTTGTATATATA [CACACA_site9078]” as the sequence, how does the “gcPBM binding intensity (ln)” value read?
**A.** 9.02 ± 0.25

**Q.** Which “gcPBM binding intensity (ln)” value does the source give for “AGAATTCGTTTAAAAAGTACATTCAATTTAATAATG [XGTACX_site6603]” here?
**A.** 8.39 ± 0.45

**Q.** How did the “gcPBM binding intensity (ln)” value turn out when “TAGTATTAAAATATTTGTACTTATATGTATTATATA [XGTACX_site538]” was run?
**A.** 8.66 ± 0.44

**Q.** “TGTAGTCTGGAGAAGAGTACACAGTATCTGGTAACA [XGTACX_site2038]” was tested. Which “gcPBM binding intensity (ln)” value did it give?
**A.** 8.69 ± 0.54

**Q.** “AATATTTTAAAAAAAAGTACATTATATATATATGTT [XGTACX_site8073]” was tested. Which “gcPBM binding intensity (ln)” value did it give?
**A.** 8.44 ± 0.45

**Q.** How did the “gcPBM binding intensity (ln)” value turn out when “AAAGAAATGAAATATACACACATACATAAATACATA [CACACA_site6081]” was run?
**A.** 9.26 ± 0.35

**Q.** With “ATAAAGGAAATTACAAGTACAAATAAGATAAAATAA [XGTACX_site4514]” as the sequence, how does the “gcPBM binding intensity (ln)” value read?
**A.** 8.82 ± 0.67

**Q.** How did the “gcPBM binding intensity (ln)” value turn out when “AATTATATATTATAATGTACATATATATAACTATAC [XGTACX_site1865]” was run?
**A.** 8.74 ± 0.43

**Q.** How did the “gcPBM binding intensity (ln)” value turn out when “ATATATTTAAACTACACACGCATATCTTAGAAATAA [CACACA_site1272]” was run?
**A.** 8.9 ± 0.29

**Q.** How did the “gcPBM binding intensity (ln)” value turn out when “TATAAAAAAAGAGGAGGGATGGTATACTTGTGGTTT [TGCATGCA_negctrl_site49]” was run?
**A.** 8.95 ± 0.18

**Q.** How did the “gcPBM binding intensity (ln)” value turn out when TTATTTTTGTTCATAGTGCATAGAATTTATACATAT was run?
**A.** 8.8 ± 0.53

**Q.** With “TTTTTTTTATGGTACACACACGCGTATGGTTGCACG [CACACA_site1877]” as the sequence, how does the “gcPBM binding intensity (ln)” value read?
**A.** 9.38 ± 0.45

**Q.** “ATAGACAGCGCACAAACACACAAACACAGACCCCCA [CACACA_site4409]” was tested. Which “gcPBM binding intensity (ln)” value did it give?
**A.** 9.89 ± 0.4
